Results from a compilation of properties of binary mixtures (doi:10.1002/cjce.20546).
The densities may have been worked out from excess volumes.

Test: xn = mol fraction of the nth substance listed
Details: 298.15 K, 101 kPa

CCC(C)(C)OC + CC(CC(C)(C)C)CP(=O)([O-])CC(C)CC(C)(C)C.CCCCCCCCCCCCCC[P+](CCCCCC)(CCCCCC)CCCCCC
mass density (x1 = 0.1078): 884.7 kg/m3 | mass density (x1 = 0.2021): 882.8 kg/m3 | mass density (x1 = 0.2989): 880.3 kg/m3 | mass density (x1 = 0.4172): 876.4 kg/m3 | mass density (x1 = 0.5019): 872.7 kg/m3 | mass density (x1 = 0.7036): 857.6 kg/m3 | mass density (x1 = 0.7996): 844 kg/m3 | mass density (x1 = 0.9): 819.3 kg/m3 | mass density (x1 = 0.95): 798.7 kg/m3 | mass density (x1 = 1): 766 kg/m3

CC(CC(C)(C)C)CP(=O)([O-])CC(C)CC(C)(C)C.CCCCCCCCCCCCCC[P+](CCCCCC)(CCCCCC)CCCCCC + CO
mass density (x2 = 0): 886.4 kg/m3 | mass density (x2 = 0.1098): 886.4 kg/m3 | mass density (x2 = 0.3979): 886.1 kg/m3 | mass density (x2 = 0.5029): 885.7 kg/m3 | mass density (x2 = 0.6008): 884.9 kg/m3 | mass density (x2 = 0.8001): 879 kg/m3

CO + CC(CC(C)(C)C)CP(=O)([O-])CC(C)CC(C)(C)C.CCCCCCCCCCCCCC[P+](CCCCCC)(CCCCCC)CCCCCC
mass density (x1 = 1): 786.7 kg/m3

CC(CC(C)(C)C)CP(=O)([O-])CC(C)CC(C)(C)C.CCCCCCCCCCCCCC[P+](CCCCCC)(CCCCCC)CCCCCC + CC(C)OC(C)C
mass density (x2 = 0): 886.4 kg/m3 | mass density (x2 = 0.0457): 885.6 kg/m3 | mass density (x2 = 0.108): 884.1 kg/m3 | mass density (x2 = 0.2971): 877.8 kg/m3 | mass density (x2 = 0.4005): 872.6 kg/m3 | mass density (x2 = 0.5002): 866 kg/m3 | mass density (x2 = 0.5996): 857.2 kg/m3 | mass density (x2 = 0.7003): 844.4 kg/m3 | mass density (x2 = 0.8001): 824.9 kg/m3 | mass density (x2 = 0.8998): 790.9 kg/m3 | mass density (x2 = 0.9499): 762.3 kg/m3

CC(CC(C)(C)C)CP(=O)([O-])CC(C)CC(C)(C)C.CCCCCCCCCCCCCC[P+](CCCCCC)(CCCCCC)CCCCCC + CCC(C)(C)OC
mass density (x2 = 0): 886.4 kg/m3

CC(CC(C)(C)C)CP(=O)([O-])CC(C)CC(C)(C)C.CCCCCCCCCCCCCC[P+](CCCCCC)(CCCCCC)CCCCCC + CCCO
mass density (x2 = 0): 886.4 kg/m3 | mass density (x2 = 0.1063): 886 kg/m3 | mass density (x2 = 0.1942): 885.6 kg/m3 | mass density (x2 = 0.3995): 883.9 kg/m3 | mass density (x2 = 0.5025): 882.4 kg/m3 | mass density (x2 = 0.605): 880 kg/m3 | mass density (x2 = 0.7012): 876.4 kg/m3 | mass density (x2 = 0.8005): 870 kg/m3 | mass density (x2 = 0.8997): 855.2 kg/m3 | mass density (x2 = 0.9501): 838.2 kg/m3

CCCO + CC(CC(C)(C)C)CP(=O)([O-])CC(C)CC(C)(C)C.CCCCCCCCCCCCCC[P+](CCCCCC)(CCCCCC)CCCCCC
mass density (x1 = 1): 799.7 kg/m3
